The values below come from ChEMBL document CHEMBL4888484, “Replenishing the malaria drug discovery pipeline: Screening and hit evaluation of the MMV Hit Generation Library 1 (HGL1) against asexual blood stage Plasmodium falciparum ,using a nano luciferase reporter read-out” (2022).

Hit rate of the full screen: of about 150,000 compounds, about 540 (0.36%) showed an effect of 50% or more. The list shows a part of the results.

The assay relates to Plasmodium falciparum. Nature of the assay: Primary screen in NF54 nanoGlo assay, in single point, at 2uM, 72h; a lower Z score goes with more inhibition. The assay is classed as functional, Erythrocyte. The conditions noted are these: timepoint 72 hour.
Take `CC1CCN(C(=O)c2n[nH]c3c2CN(C(=O)Cc2ccccc2Cl)CC3)CC1`: the “% Inhibition” value was found to be 2% and the Z score is -0.24.
Taken in the same sequence, the figures for `Cc1nc(C)c(-c2nc(-c3ccc4oc(-c5ccccc5)nc4c3)no2)s1` were -3% and 0.3.
The matching figures for `Cc1cc(CN(C)C(=O)c2ocnc2C)no1`: -7% and 1.13.
As to `C[C@@H](c1nnc(-c2ccccc2F)s1)N(C)Cc1ccc(F)cc1`, the “% Inhibition” value was 0% and the Z score was -0.04.
For the compound `COc1cccc(C(=O)N2CCN(C(=O)C[C@H]3CCS(=O)(=O)C3)CC2)c1`, the “% Inhibition” value is on record as -12% and the Z score is 2.09.
Take `CCN1CC(C)N(S(=O)(=O)c2cc(C(=O)NC)n(C)c2)C(C)C1` (stereo unspecified): the “% Inhibition” value is -12% and the Z score is 1.82.
Taken in the same sequence, the figures for `COc1ccc(-c2ccn(CC(=O)Nc3cc(C)nn3C)n2)cc1F` were -14% and 1.72.
The matching figures for `CC(C)[C@H](NC(=O)Nc1ccnn1C(C)(C)C)c1cnn(C)c1`: -12% and 1.82.
Taken in the same sequence, the figures for `O=C(Cc1cnc2ccccc2c1)N1CCC([C@@H]2CCCO2)CC1` were -14% and 1.95.
Take `COCCCNC(=O)c1cc2cc(S(=O)(=O)N(C)C)ccc2n1Cc1ccncc1`: the “% Inhibition” value was -14% and the Z score is on record as 1.98.
Taken in the same sequence, the figures for `CCCN1C(=O)N[C@@H](Cc2ncnn2Cc2ccc(OC)cc2)C1=O` were -8% and 1.2.
Taken in the same sequence, the figures for `Cc1ccc2c(c1)OC[C@H](CC(=O)N1CCCCC1)N2Cc1ccc(F)cc1` were -2% and 0.34.
Taken in the same sequence, the figures for `CCOC(=O)c1nnsc1NC(=O)N1CCCCC1` were -1% and 0.15.
As for `COc1cc(NCCc2nc(N)cc(O)n2)ncn1`, the “% Inhibition” value was -3% and the Z score came to 0.54.
The matching figures for `CC(C)=CCC[C@@]1(C)CCC(=O)N(CCc2c[nH]c(=O)[nH]c2=O)C1`: -13% and 2.59.
Taken in the same sequence, the figures for `Cc1ccc2c(c1)c1c(n2C[C@H](O)CN2CCCCC2)C(=O)CCC1` were 9% and -1.46.
The matching figures for `C[C@H]1CN(c2nc(-c3ccccc3)ns2)CCCO1`: 0% and -0.05.
`O=C(CCc1ccc2c(c1)OCO2)N1CCN(C(=O)c2ccccc2)CC1`: the “% Inhibition” value is reported as -18% and the Z score is 2.03.
The matching figures for `COC(=O)C12CCC(C(=O)NC[C@H]3CCCOC3)(CC1)CC2`: 33% and -4.72.
The matching figures for `CC[C@@H](C(=O)NCCn1nc(C)nc1C)n1cccn1`: -5% and 0.82.
Consider `Cc1cc2c(cc1S(=O)(=O)N(C)Cc1nnc[nH]1)OCO2`, for which the “% Inhibition” value worked out at 1% and the Z score is -0.15.
In the case of `O=C(CN1CCNC(=O)[C@@H]1c1ccc(OC(F)(F)F)cc1)NC1CC1`, the “% Inhibition” value stood at 2% and the Z score is -0.29.
Taken in the same sequence, the figures for `c1cc2c(cc1OCc1noc3c1CCCC3)OCCO2` were -16% and 2.14.
